Experimental data reported in ChEMBL document CHEMBL4888484, “Replenishing the malaria drug discovery pipeline: Screening and hit evaluation of the MMV Hit Generation Library 1 (HGL1) against asexual blood stage Plasmodium falciparum ,using a nano luciferase reporter read-out” (2022).
The campaign covered roughly 150,000 compounds. About 540 (0.36%) showed an effect of 50% or more. The list shows a part of the results.

test system: Plasmodium falciparum; assay: Primary screen in NF54 nanoGlo assay, in single point, at 2uM, 72h; a lower Z score goes with more inhibition; format: functional, Erythrocyte; settings: timepoint 72 hour

Compound	% Inhibition	Z score
CN1CCC(N(C)CC(NCC2CCC=CO2)c2ccccc2)CC1 (stereo not given)	-4%	0.49
CC(C)c1nnc(CN2CCC(C(F)(F)F)(C(F)(F)F)C2)o1	-6%	0.57
Cc1ccc(NC(=O)N[C@@H](CC(C)C)C(=O)O)cc1C	-2%	0.24
COc1ccc(-c2nc3c(cnn3Cc3ccncc3)[nH]2)cc1OC	-6%	0.89
Cc1cc(N2CCOC[C@@H](O)C2)nc(Nc2cccc(O)c2)n1	-4%	0.39
O=C(CN1CCOCC1)N1CC[C@@]2(CCCN(C3CCCCC3)C2=O)C1	4%	-0.76
CCOC(=O)c1nnsc1Nc1ccc(F)cc1	11%	-1.33
COc1ccc(N2CCN(C(=O)c3[nH]nc4c3CCC4)CC2)cc1	9%	-1.01
COc1ccc(C(C)CN2CCCCC2CS(N)(=O)=O)cc1 (stereo not given)	0%	-0.03
CC(C)CNC(=O)c1nc(-c2ccnc(N3CCCCCC3)c2)no1	-3%	0.43
Cc1cc(C(=O)NC[C@H]2CCCN(C(=O)c3cccc(O)n3)C2)c(C)o1	-11%	1.87
Fc1cccc(-c2nc3n(n2)[C@@H](C(Cl)(Cl)Cl)Nc2ccccc2-3)c1	5%	-0.67
CN(C(=O)Cc1ccc2c(c1)CCCO2)c1ncccc1F	2%	-0.3
CCc1csc(CNS(=O)(=O)N2CCOCC2)n1	1%	-0.16
CN(Cc1ccc(F)cc1)c1ccc(-c2nc(C3CC3)no2)cn1	-5%	0.94
Cn1cc(-c2nnc(N3CCOCC3)[nH]2)cn1	-10%	1.62
CCC(NC(=O)NC(C)Cc1ccsc1)c1nc(C)cs1 (stereo not given)	-14%	2.19
CN(Cc1ccn(C)n1)C(=O)N[C@@H]1CCCOC1	10%	-0.99
COc1ccc(N(Cc2ccc(Cl)c(Cl)c2)c2snnc2C)cc1	-23%	3.01
C[C@H](NC(=O)c1cc2ccccc2cc1O)c1cccs1	-8%	1.28
COC(=O)[C@H](C)NC(=O)COc1ccccc1	-8%	1.3
CCOC(=O)c1c(-c2ccc(Cl)cc2)nn2c1NCN(Cc1ccccc1Cl)C2	-9%	1.43

Compound	% Inhibition	Z score
CCn1c(=O)n(Cc2noc(C3CC3)n2)c2ccccc21	10%	-1.12
O=C(NC[C@@H]1C=CCC1)N1CCOC2(CCS(=O)(=O)CC2)C1	-6%	0.69
COCCN1C[C@]2(CCCN(C(=O)c3ccc(O)cc3)C2)CCC1=O	-15%	2.4
Cn1c(CN2CCCC2)nnc1C1CCN(C(=O)C2CCCCCC2)CC1	-20%	2.55
Cc1ccc(CNCc2cccnc2)s1	-12%	1.76
Cn1ncc(Oc2ccc(F)cc2F)c(Nc2cccc(C(=O)NCc3cccnc3)c2)c1=O	-5%	0.54
COCCC(=O)Nc1ccc(Br)c(C)n1	-2%	0.31
Cc1ccccc1NC(=O)N1CCN(CCn2cccn2)CC1	-9%	1.71
COC[C@@H]1CN(C(=O)c2ccc(C)c(F)c2)C[C@H]1c1ccccn1	-21%	3.59
CC1CCN(C(=O)C(=O)Nc2ccc(C#N)cc2)C(c2ccco2)C1 (stereo not given)	0%	0.06
CN1CCO[C@@H](C(=O)NCCN2CCN(c3ccccc3F)CC2)[C@@H]1c1ccccc1	-6%	0.77
CN1C[C@H]2CN(C(=O)Cc3cccc(Cl)c3)C[C@@]2(C(=O)N2CCCC2)C1	-6%	0.82
Cc1oc(C)c(C(=O)N[C@@H](C)c2ccccn2)c1C	-9%	1
O=C1NC2(CCC2)C(=O)N1CC1CCCCC1	4%	-0.45
COc1ccc(OC)c(NC(=O)c2sc(Nc3ccc(F)cc3)nc2C)c1	-11%	1.43
CNC(=O)N1CCc2cn(C)c3cccc(c23)C1	-10%	1.02
CC(C)N1C(=O)CN(CN(C)Cc2ccc(Cl)cc2)C1=O	-11%	2.03
O=C(c1ccc(Cl)c(F)c1)N1CC[C@H]2[C@H](CCC(=O)N2CCCCO)C1	1%	-0.11
Cc1cc(C(=O)N2CCN(CCN3C(=O)NC(C)(C)C3=O)CC2)on1	-8%	1
O=C([C@H]1CCCC12CC2)N1CCC(c2nc(C(F)(F)F)cs2)CC1	4%	-0.43
CCOc1ccccc1CN1CCN(Cc2c[nH]c3nccnc23)[C@@H](C)C1	-4%	0.77
COc1ccccc1[C@@H]1C[C@H]1C(=O)N(C)Cc1cc(F)cc(F)c1	-11%	0.96

Compound	% Inhibition	Z score
Cc1cnc(CNC(=O)c2ccc(Cl)cc2O)o1	8%	-1.18
O=C(CC1CC1)N1CCC[C@@H]1CCc1noc(-c2ccccn2)n1	-23%	3.78
CCOC(=O)c1c(NC(=O)COC[C@H]2CCCO2)ccn1C	-13%	2.47
Cc1cc(O)cc(=O)n1CCC(=O)N1CC(C)(C)[C@@H]2CCC[C@@H]21	-15%	1.49
Cc1nc(N(C)C)nc(N2C[C@H](O)[C@@H](N3CCN(C)CC3)C2)c1C	-5%	0.97
FC(F)(F)c1cccc2c(N3CCC4(CCCN4Cc4ncc[nH]4)CC3)ccnc12	-7%	0.88
Cc1nc2ccc(C(=O)N[C@H]3CCC(=O)NC34CCC4)cc2n1C	-6%	0.54
O=S(=O)(NC[C@H]1CCN(c2ccccc2)C1)N1CCOCC1	-2%	0.34
CC(C)Cc1cc(CNC2CCN(CC(C)C)CC2)no1	-6%	1.09
O[C@H]1CN(Cc2coc(-c3ccccc3)n2)C[C@@H]1F	-6%	0.8
Cc1cc(N2C[C@@H]3OC(=O)N(CCN4CCCCC4)[C@@H]3C2)nc(C(C)C)n1	-7%	0.74
Cc1ccc([C@H]2CN(S(=O)(=O)c3ccc4c(c3)OCCCO4)C[C@@H]2N)o1	-11%	1.4
CNS(=O)(=O)c1ccc(-c2ccc(OC3CC3)cc2)cc1	-13%	1.62
CCCOc1ccc(C2C3C(=O)N(c4cccc5ccccc45)C(=O)C3ON2c2ccccc2)cc1OC (stereo not given)	-14%	1.48
O=C(CCc1ccc(F)cc1)Nc1nccc(-c2ccco2)n1	29%	-0.55
CCOc1ccc(CN2C(=O)CC[C@@]2(C)C(=O)NC2CCCCC2)cc1OC	1%	-0.16
N#C[C@@H](N)c1ccc(Cl)c(Cl)c1	-1%	0.23
Cc1nn(CC(=O)N2CCN(C)c3ncccc3C2)c2ncccc12	-1%	0.09
CC[C@H](OC)C(=O)Nc1cc(C(=O)NC(C)C)ccc1C	0%	0.09
COC[C@@H](c1ccccn1)n1ccnc1-c1cc2n(n1)CCCNC2	-1%	0.11
COCCN(C)Cc1ccc(CC2CCN(C(=O)c3ccc(C)s3)CC2)cc1	-10%	1.95
O=C(Cn1cnnn1)N(c1ccccc1F)C1CCCC1	-4%	0.63

Compound	% Inhibition	Z score
CCOC(=O)N1CCN(C2=NC(=O)[C@@H](C#N)C3(CCCCC3)N2)CC1	-5%	0.65
COc1cc2c(cc1OC)CN([C@H]1CCN(Cc3cccc(Cl)c3)C[C@H]1CCC(=O)O)CC2	-5%	0.73
Cc1cn2nc(C(=O)NCCc3ccccc3)cc2c(=O)[nH]1	3%	-0.45
Brc1ccc(CN2CC(c3nc(Cc4ccccc4)no3)C2)cc1	-12%	2.24
O=C1NCCN(Cc2cccc3ccccc23)[C@H]1CC(=O)N1CCOCC1	3%	-0.48
CN(C)c1cc(NC(=O)N2CCC[C@](C)(c3ccccc3)C2)ncn1	-23%	4.24
COc1cccc(N2CCN(C(=O)c3cn4cc(-c5ccc(F)c(C)c5)ccc4n3)CC2)c1	-9%	1.72
CC(C)C(=O)N1CCc2cc(CNC(=O)c3ccccc3F)ccc21	-18%	1.65
O=C(Nc1c[nH]nc1-c1nccs1)N1C2CCC1CC(O)C2 (stereo not given)	-2%	0.26
O=C(Nc1ccccc1)NC1CCCC(OC(=O)Nc2ccccc2)C1 (stereo not given)	-17%	2.98
CCOc1cc2c(cc1CN1CCn3nc([C@H](C)O)cc3C1)CCC2	-10%	1.79
CCc1nc(-c2ccccc2)nc(N2CCN(C(C)=O)CC2)c1Cc1cccc(Cl)c1	-2%	0.31
O=C(NCCc1ncc[nH]1)c1ncccc1Oc1ccccc1	-15%	2.9
Cc1cccc(CCN2CCN(C(=O)CN3CCOCC3)CC2)n1	-9%	1.18
CC(C)[C@H](C)n1nccc1NC(=O)N1CCN(Cc2ccccc2)CC1	-18%	3.8
CCC(C)(C)C1CCC2(CC1)C[C@@H]2C(=O)N1CCOC2(CCOCC2)CC1 (stereo not given in full)	-7%	0.97
CCN(C(=O)CCN1CCCS1(=O)=O)C1CC1	-31%	3.64
COc1ccc(NC2=N[C@@H](c3ccc(Cl)cc3)n3c(nc(C)cc3=O)N2)cc1	7%	-0.84
NC(=O)c1nnsc1-n1nnc2ccccc21	17%	-2.11
